Test results as given in PubChem BioAssay AID624417 (National Center for Advancing Translational Sciences (NCATS), 2012).
About 6,400 (1.6%) of roughly 410,000 compounds were called active. Inconclusive means that the source gave no clear call. Such entries were picked first, then a sample of the others. The call rests on the fitted dose curve; in most records, active means well fitted inhibition curve with a large enough effect; inconclusive means small, poorly fitted or top-dose-only effect; inactive means no such curve, though single readings can be large or run the other way. Potencies of inconclusive entries are left out as doubtful fits.

Target: Glucagon-like peptide 1 receptor (Homo sapiens) (UniProt P43220)
UniProt P43220, sequence (P43220 whole entry, looked up): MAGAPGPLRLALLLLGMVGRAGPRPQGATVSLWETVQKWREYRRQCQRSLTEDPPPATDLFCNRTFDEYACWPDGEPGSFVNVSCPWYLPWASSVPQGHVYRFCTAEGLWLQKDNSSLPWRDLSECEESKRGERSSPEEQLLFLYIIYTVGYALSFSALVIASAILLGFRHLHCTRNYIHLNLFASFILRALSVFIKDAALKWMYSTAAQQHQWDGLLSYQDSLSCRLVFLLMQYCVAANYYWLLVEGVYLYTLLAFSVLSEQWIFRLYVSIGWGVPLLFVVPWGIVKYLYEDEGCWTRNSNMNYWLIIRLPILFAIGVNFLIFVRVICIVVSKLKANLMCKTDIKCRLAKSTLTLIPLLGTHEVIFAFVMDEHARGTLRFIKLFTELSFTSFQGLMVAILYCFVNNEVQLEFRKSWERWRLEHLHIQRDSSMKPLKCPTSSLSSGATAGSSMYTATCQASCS
Test: qHTS of GLP-1 Receptor Inverse Agonists (Inhibition Mode); further: nearly all actives have a fitted effect of over 55% in size
Details: HEK293 GLP-1R CRE-luciferase, luminescence, 24 h, GLP-1R form is constitutively active; series mostly up to 38.3 µM
Outline: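 HEK293 cells stably co-expressing constitutively active GLP-1R and a cAMP-responsive luciferase reporter were seeded in DMEM with 10% Nu serum, given compounds after 12 h, and incubated 24 h at 37 deg C. Luminescence was then read.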
Potency means the concentration at half of the fitted maximal effect; tags describe the fitted curve by direction and shape.

| SMILES | Potency |
| --- | --- |
| CC(=O)c1ccc(NC(=O)CCc2c(C)nc3cc(-c4ccc(Cl)cc4)nn3c2C)cc1 | inactive |
| CC(C)(C)c1cc(=O)n2c(C#N)c(C#N)nc2[nH]1 | inactive |
| Cc1cccc(Cc2c(C)nc3nc(SCc4ccccc4C)nn3c2C)c1 | inconclusive [inhibitor, partial curve] |
| CCN(CC)CCn1c2c(c(SCC(=O)Nc3cccc4ccccc34)nc1=O)CCC2 | inconclusive [inhibitor, partial curve, poor fit] |
| COc1cc(C(=O)Nc2ccn(C)n2)ccc1OC(F)F | inactive |
| O=C(NCCc1ccccc1)C(=O)NCC1CCCN1S(=O)(=O)c1cccs1 (stereo unspecified) | inconclusive [inhibitor, partial curve, poor fit] |
| COc1cccc(Cn2c(=O)n(-c3ccccc3C)c(=O)c3c2c2cc(C)ccc2n3C)c1 | inconclusive [inhibitor, full curve, poor fit] |
| CC(C)CC1C(=O)N(Cc2cn(Cc3ccco3)nn2)CCS(=O)(=O)N1Cc1ccc(-c2cccc(N(C)C)c2)cc1 (stereo unspecified) | inconclusive [inhibitor, partial curve, poor fit] |
| Cc1ccc(NC(=O)[C@H](C)NC(=O)C2CCN(C(=O)[C@H](CC(C)C)NC(=O)OC(C)(C)C)CC2)cc1 | inconclusive [inhibitor, single point] |
| Cc1ccc(S(=O)(=O)NCCC(=O)Nc2cccc(Cl)c2)cc1 | inconclusive [inhibitor, single point] |
| CN(CCCC(=O)Nc1ccc(OC(F)F)cc1)S(=O)(=O)c1ccc(F)cc1 | inconclusive [inhibitor, partial curve, poor fit] |
| Cc1onc(-c2c(F)cccc2Cl)c1C(=O)OCc1nnc(-c2ccccc2)o1 | inconclusive [inhibitor, single point] |
| CC1C(=O)N(Cc2ccc([N+](=O)[O-])cc2)c2ccccc2N1C(=O)c1c(F)cccc1F (stereo unspecified) | active: 10 µM |
| Cc1c(-c2nsc(NC(=O)c3cccs3)n2)nnn1-c1ccc(Br)cc1 | inconclusive [inhibitor, single point] |
| Cc1c(C(=O)Nc2nonc2-c2ccc(F)cc2)oc2ccc(F)cc12 | inconclusive [inhibitor, single point] |
| CCC1CN(C(=O)Nc2cc(C)cc(C)c2)c2ccccc2O1 (stereo unspecified) | inconclusive [inhibitor, partial curve, poor fit] |
| COc1cc(NC(=O)c2ccccc2NS(=O)(=O)c2ccc(Cl)s2)cc(OC)c1 | inconclusive [inhibitor, partial curve, poor fit] |
| C=CCn1c(COc2ccccc2-c2ccccc2)nnc1SCC(=O)NC(=O)NCc1ccco1 | inconclusive [inhibitor, single point] |
| COc1cccc(-c2csc(NC(C)=O)n2)c1 | inactive |
| O=C(Nc1ccccc1C(=O)NCc1ccco1)Nc1cccc2ccccc12 | inconclusive [inhibitor, single point] |
| Cc1c(C)n(Cc2ccccc2)c2ccc(C(=O)NCc3ccco3)cc12 | inconclusive [inhibitor, single point] |

| SMILES | Potency |
| --- | --- |
| Cc1cc2nc(-c3cccc(Cl)c3)c(Cc3ccccc3)n2c(C)c1Br | inconclusive [inhibitor, partial curve, poor fit] |
| Cc1ccc(C(=O)NCC(c2cccnc2)N2CCc3ccccc32)cc1C (stereo unspecified) | inconclusive [inhibitor, single point] |
| O=C(NCC1CCCC(CNC(=O)Nc2ccc(Cl)cn2)C1)Nc1ccc(Cl)cn1 (stereo unspecified) | inconclusive [inhibitor, partial curve, poor fit] |
| O=C(Nc1ccc(-c2cccc(F)c2)cc1)C1CCCN(Cc2ccccn2)C1 (stereo unspecified) | inconclusive [inhibitor, single point] |
| Cc1cccc(OCC(=O)Nc2ccccc2N2CCCC2)c1C | inconclusive [inhibitor, partial curve, poor fit] |
| O=C(CCn1ccc2cc(S(=O)(=O)N3CCCC3)ccc21)NCc1cccc(Br)c1 | inconclusive [inhibitor, single point] |
| O=C(Cc1ccc(S(=O)(=O)N2CCOCC2)s1)Oc1ccc(F)cc1 | inactive |
| CC(C)(C)c1ccc(C(=O)NC2CCN(Cc3ccccc3)CC2)cc1 | inconclusive [inhibitor, single point] |
| CC1(C)N=C(N)N=C(N)N1c1ccc(Oc2ccc(Cl)cc2)c(Cl)c1 | inconclusive [inhibitor, partial curve, poor fit] |
| COc1cccc(/C=N/NC(=O)NC23CC4CC(CC(C4)C2)C3)c1O | inconclusive [inhibitor, partial curve, poor fit] |
| Cc1cc(N2CCC(C)CC2)n2ncc(-c3ccccc3)c2n1 | inconclusive [inhibitor, partial curve, poor fit] |
| OC(c1ccc(F)cc1)c1ncc(-c2cccc3ccccc23)[nH]1 (stereo unspecified) | inconclusive [inhibitor, single point] |
| COc1ccc(C(CC(=O)c2ccc(C)cc2)Nc2ccc([N+](=O)[O-])cc2)cc1 (stereo unspecified) | inconclusive [inhibitor, partial curve, poor fit] |
| COc1cccc(N=C2SC(C(=O)Nc3ccc(F)cc3)CC(=O)N2C)c1 (stereo unspecified) | inconclusive [inhibitor, partial curve, poor fit] |
| CCC(Oc1ccccc1)C(=O)Nc1ncc([N+](=O)[O-])s1 (stereo unspecified) | inconclusive [inhibitor, single point] |
| Cc1ccc(CCC(=O)Nc2ccc(Cl)cc2)o1 | inconclusive [inhibitor, partial curve, poor fit] |
| CC1(C(=O)NCc2ccccc2)Cc2c(-c3ccc(C(N)=O)cc3)ccnc2O1 (stereo unspecified) | active: 6.31 µM |
| CCCCOc1ccc(CNC(=O)c2cnc3sc(N4CCOCC4)nn3c2=O)cc1 | inactive |
| COC(=O)[C@@]12CCCN1[C@H](c1ccc(-c3ccc(Cl)c(Cl)c3)c(OC)c1)[C@H]1C(=O)N(C)C(=O)[C@H]12 | inconclusive [inhibitor, single point] |
| CN(Cc1nccs1)C(=O)c1ccc2nc(Cc3ccccc3F)oc2c1 | inactive |
| COc1cccc(OCc2nc3ccccc3n2CCOc2ccccc2C)c1 | inconclusive [inhibitor, single point] |

| SMILES | Potency |
| --- | --- |
| CCOc1ccc(Cl)cc1S(=O)(=O)N1CCC(C(=O)NCc2ccco2)CC1 | inactive |
| CCCC(=O)NC(c1ccc(OC)cc1)c1ccc2cccnc2c1O (stereo unspecified) | inconclusive [inhibitor, full curve, poor fit] |
| COc1ccccc1C(=O)CC(=O)c1ccccc1 | inconclusive [inhibitor, partial curve, poor fit] |
| Oc1c(Cl)cc(CN2CCOCC2)c2cccnc12 | inconclusive [inhibitor, full curve, poor fit] |
| CCCCn1c(CNC(=O)C23CC4CC(CC(C4)C2)C3)nnc1SCC(=O)Nc1ccccc1 | inactive |
| O=C(CN1CCOCC1)N/N=C/c1ccc(-c2cccc(Cl)c2Cl)o1 | inconclusive [inhibitor, full curve, poor fit] |
| O=C(CCc1nc2cccnc2n1Cc1ccccc1)NCc1cccc(Cl)c1 | inactive |
| COc1ccc2[nH]c3c(c2c1)CCN1C(=O)N([C@@H](C)C(=O)NCc2c(F)cccc2Cl)C(=O)[C@]31C | inconclusive [inhibitor, partial curve, poor fit] |
| Cc1ccccc1Nc1ncnc2c1c(-c1ccccc1)cn2-c1ccc(F)cc1 | inconclusive [inhibitor, full curve] |
| CC(C)c1ccc(CC(=O)N2CCC2(C)C(=O)Nc2ccccc2)cc1 (stereo unspecified) | inconclusive [inhibitor, single point] |
| COc1ccc(C(=O)Nc2ccc(S(=O)(=O)N3CCCCC3)cc2)cc1 | inconclusive [inhibitor, partial curve, poor fit] |
| OCc1cnc(SCc2cccc(F)c2)n1Cc1ccc(F)cc1 | inconclusive [inhibitor, single point] |
| O=C(COc1ccc(F)cc1)NCCNC(=O)COc1ccc(F)cc1 | inactive |
| CCCCCCC(=O)N1C/C=C\C(c2ccc(OC)cc2)N(Cc2ccc(F)cc2)C(=O)[C@H]1Cc1ccccc1 (stereo partly specified) | inconclusive [inhibitor, partial curve, poor fit] |
| Cc1cccc(C(=O)NC(C)C2CC3CCC2C3)c1 (stereo unspecified) | inconclusive [inhibitor, single point] |
| Cc1ccc(NC(=O)CSc2nn(-c3ccccc3)c(=S)s2)cc1S(=O)(=O)N(C)C | inconclusive [inhibitor, partial curve, poor fit] |
| O=C(CN1CCN(c2cccc(C(F)(F)F)c2)CC1)NCc1ccccc1 | inconclusive [inhibitor, partial curve, poor fit] |
| COc1cc(CN2C(=O)C(CCc3ccccc3)ON=C2c2cnccn2)cc(OC)c1 (stereo unspecified) | inconclusive [inhibitor, single point] |
| Cc1csc(NC(=O)c2cc3c(C)nn(Cc4ccccc4Cl)c3s2)n1 | inconclusive [inhibitor, partial curve, poor fit] |
